Source: US11178870B2 (priority 2017, dated 2021)

How the values were obtained:
Format in all cases: in vivo
[1] = test system: Blumeria graminis f. sp. hordei; test: Test Example D: Powdery mildew on barley; conditions: for Test D control value (powdery mildew on barley): class of control value, Table 7; for control value, Test D (powdery mildew on barley): Table 7, Test D; for Test D control value: Powdery mildew on barley
Botrytis cinerea = test: Test Example B: Gray mold on tomato; conditions: for Test B control value (gray mold on tomato): class of control value, Table 7; for control value, Test B (gray mold on tomato): Table 7, Test B; for Test B control value: Gray mold on tomato
Alternaia brassicicola = test: Test Example C: Alternaria sooty spot on cabbage; conditions: for Test C control value (Alternaria sooty spot on cabbage): class of control value, Table 7; for control value, Test C (Alternaria sooty spot on cabbage): Table 7, Test C; for Test C control value: Alternaria sooty spot on cabbage
Puccinia recondita = test: Test Example E: Brown rust on wheat; conditions: for Test E control value (brown rust on wheat): class of control value, Table 7; for control value, Test E (brown rust on wheat): Table 7, Test E; for Test E control value: Brown rust on wheat
Plasmopara viticola = test: Test Example G: Downy mildew on vine; conditions: for Test G control value (downy mildew on vine): 250 ppm spray, investigated 7 to 10 days after inoculation; for Test G control value (downy mildew on vine) / Test G control value: 2.5 ml/pot; for control value, Test G (downy mildew on vine): 250 ppm sprayed (2.5 ml/pot) before inoculation, assessed 7 to 10 days after inoculation; for Test G control value: Downy mildew on vine, 250 ppm sprayed, 7 to 10 days after inoculation

Row | SMILES | Test D control value (powdery mildew on barley) [1] | Test B control value (gray mold on tomato) (Botrytis cinerea) | Test C control value (Alternaria sooty spot on cabbage) (Alternaia brassicicola) | Test E control value (brown rust on wheat) (Puccinia recondita) | Test G control value (downy mildew on vine) (Plasmopara viticola) | control value, Test D (powdery mildew on barley) [1] | control value, Test B (gray mold on tomato) (Botrytis cinerea) | control value, Test C (Alternaria sooty spot on cabbage) (Alternaia brassicicola) | control value, Test E (brown rust on wheat) (Puccinia recondita) | control value, Test G (downy mildew on vine) (Plasmopara viticola) | further results
1 | O=c1c(Cl)cc(-n2cc(F)cn2)c(-c2ccc(F)cc2Br)n1CC(F)F [Compound 448] | H (H shows the control value more than 50%) | H (H shows the control value more than 50%) | H (H shows the control value more than 50%) | H (H shows the control value more than 50%) | L (L shows the control value of 50% or less) | – | – | – | – | – | –
2 | CCn1c(-c2c(F)cccc2F)c(-c2sc(Br)cc2C)cc(Cl)c1=O [Compound 387] | H (H shows the control value more than 50%) | H (H shows the control value more than 50%) | H (H shows the control value more than 50%) | H (H shows the control value more than 50%) | L (L shows the control value of 50% or less) | – | – | – | – | – | –
3 | O=c1ccc(-c2ccsc2Br)c(-c2c(F)cccc2F)n1CC(F)F [Compound 323] | – | – | – | – | – | H (H shows the control value more than 50%) | H (H shows the control value more than 50%) | H (H shows the control value more than 50%) | H (H shows the control value more than 50%) | H (H shows the control value more than 50%) | –
4 | Cc1cnn(-c2cc(Br)c(=O)n(C)c2-c2ccc(F)cc2F)c1Cl [Compound 412] | H (H shows the control value more than 50%) | H (H shows the control value more than 50%) | H (H shows the control value more than 50%) | H (H shows the control value more than 50%) | H (H shows the control value more than 50%) | – | – | – | – | – | –
5 | O=c1c(Cl)cc(-n2cc(Cl)cn2)c(-c2ccc(F)cc2F)n1CC(F)F [Compound 212] | – | – | – | – | – | H (H shows the control value more than 50%) | L (L shows the control value of 50% or less) | H (H shows the control value more than 50%) | L (L shows the control value of 50% or less) | L (L shows the control value of 50% or less) | –
6 | Cc1cnn(-c2cc(Br)c(=O)n(CC(F)F)c2-c2ccccc2F)c1 [Compound 309] | – | – | – | – | – | H (H shows the control value more than 50%) | H (H shows the control value more than 50%) | H (H shows the control value more than 50%) | H (H shows the control value more than 50%) | L (L shows the control value of 50% or less) | –
7 | CCn1c(-c2ccc(F)cc2F)c(-n2cc(F)cn2)cc(Cl)c1=O [Compound 251] | – | – | – | – | – | H (H shows the control value more than 50%) | H (H shows the control value more than 50%) | H (H shows the control value more than 50%) | H (H shows the control value more than 50%) | L (L shows the control value of 50% or less) | –
8 | CCn1c(-c2ccccc2Br)c(-n2cc(Cl)cn2)ccc1=O [Compound 183] | – | – | – | – | – | – | – | – | – | – | Test D control value [1]: H (H shows the control value more than 50%); Test B control value (Botrytis cinerea): H (H shows the control value more than 50%); Test C control value (Alternaia brassicicola): H (H shows the control value more than 50%); Test E control value (Puccinia recondita): H (H shows the control value more than 50%); Test G control value (Plasmopara viticola): H (H shows the control value more than 50%)
9 | Cn1c(-c2c(F)cccc2F)c(-c2sc(Cl)cc2Cl)cc(Cl)c1=O [Compound 440] | L (L shows the control value of 50% or less) | L (L shows the control value of 50% or less) | H (H shows the control value more than 50%) | L (L shows the control value of 50% or less) | H (H shows the control value more than 50%) | – | – | – | – | – | –
10 | COc1ccc(-c2c(-n3cc(Cl)cn3)cc(Cl)c(=O)n2CC(F)F)c(F)c1 [Compound 213] | – | – | – | – | – | H (H shows the control value more than 50%) | H (H shows the control value more than 50%) | H (H shows the control value more than 50%) | H (H shows the control value more than 50%) | L (L shows the control value of 50% or less) | –
11 | CCn1c(-c2c(F)cccc2Br)c(-n2cc(F)cn2)cc(Cl)c1=O [Compound 391] | L (L shows the control value of 50% or less) | H (H shows the control value more than 50%) | L (L shows the control value of 50% or less) | H (H shows the control value more than 50%) | L (L shows the control value of 50% or less) | – | – | – | – | – | –
12 | CCn1c(-c2ccc(F)cc2C)c(-n2cc(Cl)cn2)ccc1=O [Compound 168] | – | – | – | – | – | – | – | – | – | – | Test D control value [1]: H (H shows the control value more than 50%); Test B control value (Botrytis cinerea): L (L shows the control value of 50% or less); Test C control value (Alternaia brassicicola): H (H shows the control value more than 50%); Test E control value (Puccinia recondita): H (H shows the control value more than 50%); Test G control value (Plasmopara viticola): L (L shows the control value of 50% or less)
13 | CCn1c(-c2ccccc2F)c(-n2ncc(C)c2Cl)cc(Cl)c1=O [Compound 263] | – | – | – | – | – | H (H shows the control value more than 50%) | H (H shows the control value more than 50%) | H (H shows the control value more than 50%) | H (H shows the control value more than 50%) | L (L shows the control value of 50% or less) | –
14 | CCn1c(-c2ccccc2Br)c(-n2ncc(C)c2Cl)cc(Cl)c1=O [Compound 272] | – | – | – | – | – | H (H shows the control value more than 50%) | H (H shows the control value more than 50%) | H (H shows the control value more than 50%) | H (H shows the control value more than 50%) | L (L shows the control value of 50% or less) | –
15 | CCn1c(-c2c(F)cc(F)cc2F)c(-n2cc(Cl)c(C)n2)cc(Cl)c1=O [Compound 142] | – | – | – | – | – | – | – | – | – | – | Test D control value [1]: L (L shows the control value of 50% or less); Test B control value (Botrytis cinerea): L (L shows the control value of 50% or less); Test C control value (Alternaia brassicicola): H (H shows the control value more than 50%); Test E control value (Puccinia recondita): L (L shows the control value of 50% or less); Test G control value (Plasmopara viticola): L (L shows the control value of 50% or less)
